Measurements from PubChem BioAssay AID504466 (National Center for Advancing Translational Sciences (NCATS), 2011).
In all, about 330,000 compounds went through this assay and about 4,200 (1.3%) were called active. The shares of active, inactive and inconclusive entries below differ from those in the screen. Calls come from the whole dose curve; as a rule, active = well fitted activation curve with a large enough effect; inconclusive = small, poorly fitted or top-dose-only effect; inactive = no such curve, though single readings can be large or run the other way. Potencies beside an inconclusive call are fits to weak or partial responses and may not hold up.
Potency is the fitted concentration of half-maximal effect; tags give direction and shape of the fitted curve.

Test: qHTS screen for small molecules that induce genotoxicity in human embryonic kidney (HEK293T) cells expressing luciferase-tagged ELG1; note: nearly all actives have a fitted effect of over 60% in size
Settings: HEK293T ELG1-luciferase reporter, luminescence, 16 h; series mostly up to 46 µM
Outline: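 DMSO vehicle served as control against compound-treated ELG1-luciferase HEK293T cells; exposure lasted 16 hr at 37 °C and 5% CO2, followed by ONE-Glo luminescence detection after 30 min.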
For `CNS(=O)(=O)c1cccc(C(=O)OCC(=O)c2cc(C)n(CC3CCCO3)c2C)c1` (stereo not given), the Potency was inconclusive: 4.11 µM [activator, partial curve]. With `Cc1ccc(-c2nc(-c3nccc4ccccc34)oc2-c2ccccc2)cc1` the Potency was inconclusive: 8.2 µM [activator, partial curve]. With `c1ccc(-c2csc(Nc3ncccn3)n2)cc1` the Potency was active: 1.3 µM. With `CCOC(=O)c1ccc2c(c1)[nH]c(=S)n2CC` the Potency was active: 20.6 µM. With `CCOc1ccc(NC(=O)c2cccc3c2C(=O)N(Cc2cccnc2)C3)cc1` the Potency was inconclusive: 4.11 µM [activator, partial curve, poor fit]. For `C/C(=N\NC(=O)c1ccccc1)c1ccc(C)c([N+](=O)[O-])c1`, the Potency was inconclusive: 14.6 µM [activator, partial curve, poor fit]. With `CCn1c(SCC(=O)c2ccccc2)nnc1-c1cccs1` the Potency was inconclusive: 18.4 µM [activator, partial curve, poor fit]. With `O=C(N/N=C/c1cc([N+](=O)[O-])ccc1O)C1CC1` the Potency was “inactive”. For `Fc1ccc(COc2cccc3cccnc23)cc1`, the Potency was inconclusive: 16.4 µM [activator, partial curve]. For `Cc1ccc(S(=O)(=O)Nc2cccc(CP(=O)(c3ccccc3)c3ccccc3)c2)cc1`, the Potency was “inactive”. For `O=C(Nc1nc2ccsc2c(=O)s1)c1ccco1`, the Potency was inconclusive: 16.4 µM [activator, partial curve, poor fit]. In the case of `O=C(CCNC(=O)c1ccc([N+](=O)[O-])cc1)NCc1ccco1`, the Potency is reported as “inactive”. For `COc1ccc(C2C3=C(CCCC3=O)Nc3ccc4ncccc4c32)cc1OC` (stereo not given), the Potency was inconclusive: 9.2 µM [activator, partial curve, poor fit]. With `CCOc1cc(/C=N/NC(=S)Nc2ccccc2C(F)(F)F)ccc1OCC(=O)N1CCOCC1` the Potency was “inactive”. With `COc1cc2c(cc1OC)C(/C(C#N)=N\O)=NC(C)(C)C2` the Potency was inconclusive: 14.6 µM [activator, partial curve, poor fit]. With `CC(=O)Nc1ccc(SCC(=O)Nc2ccc3c(c2)OCCO3)cc1` the Potency was “inactive”. For `O=C(c1cc(-c2ccc(Br)cc2)on1)N1CCCC1`, the Potency was active: 2.06 µM. In the case of `CC1CCc2nc(NC(=O)CSc3nc4ccccc4o3)sc2C1` (stereo not given), the Potency is reported as active: 6.51 µM. In the case of `Cc1oncc1-c1csc(-c2ccccc2)n1`, the Potency is reported as inconclusive: 13 µM [activator, partial curve, poor fit]. With `O=c1c(-c2ccccc2)coc2cc(O)ccc12` the Potency was inconclusive: 3.26 µM [activator, partial curve, poor fit].
